Experimental data taken from patent US7842802B2, “Vinorelbine derivatives” (priority 2003, dated 2010).
Counter-ions that a name gives are not always drawn. Like-named read-outs stand apart in the source and are kept apart here. Entries with a single value are a further part of the results.

In the case of CCC1=C[C@H]2CN(C1)Cc1c([nH]c3ccc(Sc4cccc(O)c4)cc13)[C@@](C(=O)OC)(c1cc3c(cc1OC)N(C)[C@H]1[C@@](O)(C(=O)OC)[C@H](OC(C)=O)C4C(CC)=CCN5CC[C@]31[C@H]45)C2 (some centres unmarked) (as salt: tartrate) [Example 18, 11′-(3-hydroxyphenysulfanyl)vinorelbine], the melting point (ditartrate salt) is reported as 204 to 210 °C (dec.) and the melting point (trifluoroacetate salt) is reported as 236 to 242 °C (dec.).
